The structures appear in SMILES notation. Some of the results follow.

In the assay the test system is HSkMC (human skeletal muscle cells). As to the kind of experiment: cytotoxicity call (relative viability < 0.9). To be noted: 10 µM.
On to `C[C@@H]1CCCCO[C@H](CN(C)C(=O)Nc2ccc(F)cc2)[C@@H](C)CN([C@H](C)CO)C(=O)c2cc(NC(=O)Nc3ccc(C(F)(F)F)cc3)ccc2O1`, for which the cytotoxicity call is “inactive”.
Under `COc1ccc(S(=O)(=O)N(C)C[C@@H]2Oc3ccc(NS(=O)(=O)c4c(C)noc4C)cc3C(=O)N([C@H](C)CO)C[C@H]2C)cc1` stands “inactive”.
Under `C[C@@H]1CN([C@@H](C)CO)C(=O)c2cc(NS(=O)(=O)c3ccccc3)ccc2O[C@@H](C)CCCCO[C@@H]1CN(C)Cc1ccc(C(F)(F)F)cc1` stands “inactive”; under `O=C([C@H]1[C@H](CO)[C@H]2Cn3c(cccc3=O)[C@@H]1N2S(=O)(=O)c1ccccc1F)N1CCOCC1`, “inactive”; under `C[C@@H]1CN([C@H](C)CO)C(=O)c2cc(-c3cccc(C(=O)N(C)C)c3)cnc2O[C@@H]1CN(C)S(=O)(=O)c1ccc(F)cc1`, “inactive”.
Under `NCC1CCC(C(=O)O)CC1` (stereo not drawn) stands “inactive”.
Consider `O=C1O[C@H](c2ccccc2)[C@H](c2ccccc2)N2[C@H]1[C@@H](C(=O)O)[C@]1(C(=O)Nc3ccc(Cl)cc31)[C@H]2c1ccc(F)cc1`, for which the cytotoxicity call was “inactive”.
Take `C[C@@H]1CN([C@@H](C)CO)C(=O)c2cc(C3=CCCCC3)cnc2O[C@H]1CN(C)C(=O)CN1CCOCC1`: the cytotoxicity call was “inactive”.
To `C[C@@H]1CCCCO[C@H](CN(C)C(=O)NC2CCCCC2)[C@@H](C)CN([C@H](C)CO)C(=O)c2cc(NC(=O)NC3CCCCC3)ccc2O1` belongs “inactive”.
To `CCS(=O)(=O)Nc1ccc2c(c1)C(=O)N(C)[C@@H]1CC[C@H](CC(=O)NCCOC)O[C@@H]1CO2` belongs “inactive”; to `C[C@H](CO)N1C[C@H](C)[C@H](CN(C)S(=O)(=O)c2cn(C)cn2)Oc2ccc(NC(=O)Nc3ccc(F)cc3)cc2CC1=O`, “inactive”; to `C[C@@H]1CCCCO[C@@H](CN(C)C(=O)c2ccccc2)[C@@H](C)CN([C@H](C)CO)C(=O)c2cc(NC(=O)Nc3ccccc3)ccc2O1`, “inactive”.
To `Cc1noc(C)c1S(=O)(=O)Nc1ccc2c(c1)C(=O)N([C@H](C)CO)C[C@H](C)[C@H](CN(C)C)OCCCC[C@H](C)O2` belongs “inactive”; to `C[C@@H]1CCCCO[C@@H](CN(C)CC2CCCCC2)[C@H](C)CN([C@H](C)CO)C(=O)c2cc(NC(=O)Nc3ccccc3)ccc2O1`, “inactive”; to `CC(C)(O)[C@@H]1CC[C@]2(CO)[C@@H](O)CC[C@](C)(O)[C@H]2[C@@H]1O[C@@H]1O[C@H](CO)[C@@H](O)[C@H](O)[C@H]1O`, “inactive”.
For `C[C@@H]1CN([C@H](C)CO)C(=O)Cc2cc(NS(C)(=O)=O)ccc2O[C@@H]1CN(C)C(=O)Nc1ccc(C(F)(F)F)cc1`, the cytotoxicity call is “inactive”.
Under `Cc1noc(C)c1S(=O)(=O)Nc1ccc2c(c1)C(=O)N([C@@H](C)CO)C[C@@H](C)[C@H](CN(C)S(=O)(=O)c1ccccc1)O2` stands “inactive”.
Regarding `CC(C)C#Cc1cnc2c(c1)C(=O)N([C@@H](C)CO)C[C@@H](C)[C@H](CN(C)C(=O)c1ccc3c(c1)OCO3)O2`, the cytotoxicity call was “inactive”.
To `CO[C@@H]1CN(C)C(=O)c2cc(NC(=O)Nc3ccccc3F)ccc2OC[C@@H](C)N(C(=O)Nc2ccccc2F)C[C@H]1C` belongs “inactive”; to `O=C1CSC(=S)N1`, “inactive”.
Turning to `C[C@H](CO)N1C[C@H](C)[C@@H](CN(C)CC2CCCCC2)Oc2ccc(NC(=O)CCN3CCOCC3)cc2CC1=O`, the cytotoxicity call was “inactive”.
Under `Cc1noc(C)c1S(=O)(=O)Nc1ccc2c(c1)C(=O)N([C@@H](C)CO)C[C@H](C)[C@@H](CN(C)Cc1ccc(C(F)(F)F)cc1)OCCCC[C@H](C)O2` stands “inactive”.
Turning to `C[C@@H]1CN([C@H](C)CO)C(=O)c2cccc(NC(=O)Nc3ccc(C(F)(F)F)cc3)c2O[C@H]1CN(C)S(=O)(=O)c1ccc(F)cc1`, the cytotoxicity call was “inactive”.
Consider `CCN1CCN(C(=O)NC(C(=O)NC2C(=O)N3C(C(=O)O)=C(CSc4nnnn4C)CSC23)c2ccc(O)cc2)C(=O)C1=O` (stereo not drawn), for which the cytotoxicity call was “inactive”.
As for `Cc1noc(C)c1NC(=O)Nc1ccc2c(c1)C(=O)N([C@@H](C)CO)C[C@@H](C)[C@H](CN(C)Cc1ccc(Cl)c(Cl)c1)OCCCC[C@@H](C)O2`, the cytotoxicity call was “inactive”.
To `COc1cccc(NC(=O)C[C@@H]2CC[C@@H]3[C@@H](COc4ccc(NC(=O)C5CCOCC5)cc4C(=O)N3C)O2)c1` belongs “inactive”; to `C[C@@H]1CN([C@@H](C)CO)C(=O)Cc2cc(NC(=O)c3ccncc3)ccc2O[C@H]1CN(C)S(=O)(=O)c1cn(C)cn1`, “inactive”; to `CCCCCN1CC=C[C@@]23O[C@@H]4C=CCOC(=O)[C@@H]4[C@H]2C(=O)N([C@@H](C)CO)[C@@H]3C1=O`, “inactive”.

For the origin of these results see the antibiotic and cytotoxicity screens of Wong et al. (2023).
